Results from the RNAGym collection of RNA variant scans (doi:10.7554/elife.90254).
Read counts are not given, so values of variants with three or more changes are uncertain.

B1: LINE1-full (parent)
chain: UACGUAGGUGGUUUUCCCCUGAUAGUGCUAAGGGGGCCUGGAAGUUUGGACUGGGCAGAGCUCAACACAGCGUGGCAAAGUGGCUGUGGCUAGACUGCCUCUCUGGAUUCCUCGUCACUCAGCAGGGCAUCUCUGAGAGAAAUGCC

Variants of: B1
Experiment: self-cleavage, relative activity (ratio to wild type); higher = more cleavage; in vitro, sequencing; the parent is a self-cleaving ribozyme

Which self-cleavage does the source give for UACGUAGGUGGUUUUCCCCUGAUAGUGCUAAGGGGGCCUGGAAGUUUGGACUAGGCAGAGCUCAACACAGCGCGGCAAAGUGGCUGUGGCAAGACUGCCUCUCUGGAUUCCUCGUCACUCAGCAGGGCAUCUCUGAGAGGAAUGCC here?
The self-cleavage was 0.44.

With UACGUAGGUGGUUUUCCCCUGAUAGUGCUAAGGGGGCCUGGAAGUUUGGACUCGGCAGAGCUCAACACAGCGUGGCAGAGCGGCUGUGGCUAGACUGCCUCUCUGGAUUCCUCGUCACUCAGCAGGGCAUCUCUGAGAGAAAUGCC as the variant, how does the self-cleavage read?
Its self-cleavage is 1.13.

Which self-cleavage does the source give for UACGUAGGUGGUUUUCCCCUGAUAGUGCUAAGGGGGCCUGGAAGUUUGGACUUGGCAGAGCUCGACACAGCGUGGCAAAGUGGCUGUGGCUAGACUGCCUCUCCGGAUUCCUCGUCACUCAGCAGGGCAUCUCUGAGAGAGAUGCC here?
The self-cleavage was 0.22.

For UACGUAGGUGGUUUUCCCCUGAUAGUGCUAAGGGGGCCUGGAAGUUUGGACUUGGCAGAGCUCAGCACAGCGUGGCAAAGUGGCUGUGGCUAGACUGCCUCUCUGGAUUCCUCGUCACUCAGCAGGGCACCUCUGAGAGAAAUGCC, which self-cleavage is on record?
Its self-cleavage is 0.05.

Which self-cleavage does the source give for UACGUAGGUGGUUUUCCCCUGAUAGUGCUAAGGGGGCCUGGAAGUUUGGACUUGGCAGAGCUCAACACAGCGUGGCAAAGUGGCUGAGGCUAGACUGCCUCUCUGGAUUCCUCGUCUCUCAGCAGGGCAUCUCUGAGAGAAAUGCC here?
Its self-cleavage is 0.12.

Which self-cleavage does the source give for UACGUAGGUGGUUUUCCCCUGAUAGUGCUAAGGGGGCCUGGAAGUUUGGACUUGGCAGAGCUCAACACAGCGUGGCAAAGUGGCUGUGGCUAGACUGCCUCUCUGGAUUCCUCGUCACCCAGCAGGGCAUCCCUGAGAGAAAUGCC here?
Its self-cleavage is 1.52.

With UACGUAGGUGGUUUUCCCCUGAUAGUGCUAAGGGGGCCUGGAAGUUUGGACUGAGCUGAGCUCACCACAGCGUGGCAAAGUGGCUGUGGCUAGACUGCCUCACUGGAUUCCUCGUCACUCAGCAGGGCAACUCUGAGAGAAAUGCC as the variant, how does the self-cleavage read?
Its self-cleavage is 0.03.

For UACGUAGGUGGUUUUCCCCUGAUAGUGCUAAGGGGGCCUGGAAGUUUGGACUGAGCAGAGCUCGACACAGCGUGGCAAAGUGGCUGCGGCUAGACUGCCUCUCUGGAUUCCUCGUCACUCAGCAGGGCAUCUCUGAGGGAAAUGCC, which self-cleavage is on record?
Its self-cleavage is 0.22.

Which self-cleavage does the source give for UACGUAGGUGGUUUUCCCCUGAUAGUGCUAAGGGGGCCUGGAAGUUUGGACUGAGCAGAGCUCAACACCGCGUGGCAAAGUGGCUGUGGCUAGACUGCCUCCCUGGAUUCCUCGUCACUCAGCAGGGCAUCUCUGAGAGAAAUGCC here?
Its self-cleavage is 0.06.

Which self-cleavage does the source give for UACGUAGGUGGUUUUCCCCUGAUAGUGCUAAGGGGGCCUGGAAGUUUGGACUGAGCAGAGCUCAACACAGCGUGGCAAGGUGGCUGUGGCUAGACUGCCUCUCUGGAUUCCUCGUCACUCAGCAGGGCAUCUCUGGGAGAAAUGCC here?
Its self-cleavage is 0.63.

For UACGUAGGUGGUUUUCCCCUGAUAGUGCUAAGGGGGCCUGGAAGUUUGGACUGAGCAGAGCUCAACACAGCGUGGCAAAGUGGCUGUGGCUAGACUGCCUCUCUGGAUUCCUCGUCACUCAGCAGGGCUUCUCUGAGAGAAACGCC, which self-cleavage is on record?
The self-cleavage was 0.73.

Which self-cleavage does the source give for UACGUAGGUGGUUUUCCCCUGAUAGUGCUAAGGGGGCCUGGAAGUUUGGACUGAGCAGAGCUCAACACAGCGUGGCAAAGUGGCUGUGGCUAGACUGCCUCUCUGGAUUCCUCGUCAUUCAGCAUGGCAUCUCUGAGAGAAAUGCC here?
The self-cleavage was 0.67.

With UACGUAGGUGGUUUUCCCCUGAUAGUGCUAAGGGGGCCUGGAAGUUUGGACUGAGCAGAGCUCAACACAGCAUGGCAAAGUGGCUGUGGCUAGACUGCCUCUCUGGAUUCCUCGCCACUCAGCAGGGCAUCUCUGAGAGAAAUGCC as the variant, how does the self-cleavage read?
The self-cleavage was 0.56.

For UACGUAGGUGGUUUUCCCCUGAUAGUGCUAAGGGGGCCUGGAAGUUUGGACUGAGCAGAGCUCAACACAGCGUGGCAAAGUAGCUGUGGCUAGACUGCCUCCCUGGAUUCCUCGUCGCUCAGCAGGGCAUCUCUGAGAGAAAUGCC, which self-cleavage is on record?
Its self-cleavage is 0.31.

With UACGUAGGUGGUUUUCCCCUGAUAGUGCUAAGGGGGCCUGGAAGUUUGGACUGAGCAGAGCUCAACACAGCGUGGCAAAGUGGCUGUGGCUAGACUGCCUCUCUGGAUUCCUCGUCACUCAGCAGUGCGUCUCUGAGAGAAAUGCC as the variant, how does the self-cleavage read?
The self-cleavage was 1.22.

For UACGUAGGUGGUUUUCCCCUGAUAGUGCUAAGGGGGCCUGGAAGUUUGGACUGAGCAGAGCACAACACAGCGUGGCAAAGUGGCUGUGGCUAGACUGCCUCUCUGGAUUCCUCGUCACUCAGCAGGGCAUCUCUGAGAGAAGUGCC, which self-cleavage is on record?
The self-cleavage was 0.05.

For UACGUAGGUGGUUUUCCCCUGAUAGUGCUAAGGGGGCCUGGAAGUUUGGACUGAGCAGAGCCCAACACAGCGUGGCUAAGUGGCUGUGGCUAGACUGCCUCUCUGGAUUCCUCGUCACUCAGCAGGGCAUCUCUGAGAGAAAUGCC, which self-cleavage is on record?
The self-cleavage was 0.02.

With UACGUAGGUGGUUUUCCCCUGAUAGUGCUAAGGGGGCCUGGAAGUUUGGACUGAGCAGAGCUCAACACAGCGAGGCAAAGUGGCUGUGGCUAGACUGCCUCUCUGGACUCCUCGUCACACAGCAGGGCAUCUCUGAGAGAAAUGCC as the variant, how does the self-cleavage read?
The self-cleavage was 0.94.

Which self-cleavage does the source give for UACGUAGGUGGUUUUCCCCUGAUAGUGCUAAGGGGGCCUGGAAGUUUGGACUGAGCAGAGCUCAACACAGCGUGGCAAAGUGGCAGUGGCUAGACUGCCUCUCUGGAUUCCUCGUCACUCAGCAGGGCAUCUCUGAGAGAAAUGGC here?
The self-cleavage was 0.03.

Which self-cleavage does the source give for UACGUAGGUGGUUUUCCCCUGAUAGUGCUAAGGGGGCCUGGAAGUUUGGACUGAGCAGAGCUCAACACAGCGUGGCAAAGUGGCCGUGGCUAGACUGCCUCUCUGGAUUCCUCGUCACUCAGCGGGGCAUCUCUGAGAGAAAUGCC here?
The self-cleavage was 0.06.

With UACGUAGGUGGUUUUCCCCUGAUAGUGCUAAGGGGGCCUGGAAGUUUGGACUGAGCAGAGCUCAACACAGCGUGGCAAAGUGGCCGUGGCUAGACUGCCUCUCUGGAUUCCACGUCACUCAGCAGGGCAUCUCUGAGAGAAAUGCC as the variant, how does the self-cleavage read?
Its self-cleavage is 0.09.

With UACGUAGGUGGUUUUCCCCUGAUAGUGCUAAGGGGGCCUGGAAGUUUGGACUGAGCAGAGCUCAACACAGCGUGGCAAAGUGGCUGCGGCUAGACUGCCUCUCUGGAUUCCUCGUCACUCUGCAGGGCAUCUCUGAGAGAAGUGCC as the variant, how does the self-cleavage read?
The self-cleavage was 0.08.

Which self-cleavage does the source give for UACGUAGGUGGUUUUCCCCUGAUAGUGCUAAGGGGGCCUGGAAGUUUGGACUGAGCAGAGCUCAACACAGCGUGGCAAAGUGGCUGUGGCUAGACAGCCUCUCUGGAUUCCUCGUCACUCAGCAGGGCUUCUCUGAGAGAAAUGCC here?
The self-cleavage was 0.05.

For UACGUAGGUGGUUUUCCCCUGAUAGUGCUAAGGGGGCCUGGAAGUUUGGACUGCGCAGAGCUCAACACAGCGUGGCAAAGUGGCUAUGGCUAGACCGCCUCUCUGGAUUCCUCGUCACUCAGCAGGGCAUCUCUGAGAGAAAUGCC, which self-cleavage is on record?
The self-cleavage was 0.05.

Which self-cleavage does the source give for UACGUAGGUGGUUUUCCCCUGAUAGUGCUAAGGGGGCCUGGAAGUUUGGACUGCGCAGAGCUCAACACAGCGUGGCAAAGCGGAUGUGGCUAGACCGCCCCUCUGGAUUCCUCGUCACUCAGCAGGGCAUCUCUGAGAGAAAUGCC here?
The self-cleavage was 0.26.

Which self-cleavage does the source give for UACGUAGGUGGUUUUCCCCUGAUAGUGCUAAGGGGGCCUGGAAGUUUGGACUGUGCGGAGCUCAACACAGCGUGGCAAAGUGGCUGUUGCUAGACCGCCUCUCUGGAUUCCUCGUCACUCAGCAGGGCAUCUCUGAGAGAAAUGCC here?
Its self-cleavage is 0.03.

Which self-cleavage does the source give for UACGUAGGUGGUUUUCCCCUGAUAGUGCUAAGGGGGCCUGGAAGUUUGGACUGUGCGGAGCUCAACACAGCGUGGCAAAGUGGCUGUGGCUAGACUGCCUCUCUGGAUUCCUCGUCACUCAGCAGGGCAUCCCUGAGAGAAAUGCC here?
Its self-cleavage is 0.24.

Which self-cleavage does the source give for UACGUAGGUGGUUUUCCCCUGAUAGUGCUAAGGGGGCCUGGAAGUUUGGACUGUGCUGAGCUCAACACAGCGUGGCAAGGUGGCUGUGGCUAGACUGCCUCUCCGGAUUCCUCGUCACUCAGCAGGGCAUCUCUGAGAGAAGUGCC here?
Its self-cleavage is 0.09.

Which self-cleavage does the source give for UACGUAGGUGGUUUUCCCCUGAUAGUGCUAAGGGGGCCUGGAAGUUUGGACUGUGCAGAGCUCAACACAGCGUGGCAAAGUGGCUGUGGCUAGACUGCCUCUCUGGAUUCCUCGUCUCUCAGCAGAGCAUCUCUGAGAGAAAUGCC here?
The self-cleavage was 0.86.

For UACGUAGGUGGUUUUCCCCUGAUAGUGCUAAGGGGGCCUGGAAGUUUGGACUGUGCAGAGCUCAACACAGCGUGGCAAAAUGGCUGCGGCUAGUCUGCCUCUCUGGAUUCCUCGUCGCUCAGCAGGGCAUCUCUGAGAGAAAUGCC, which self-cleavage is on record?
The self-cleavage was 0.09.

With UACGUAGGUGGUUUUCCCCUGAUAGUGCUAAGGGGGCCUGGAAGUUUGGACUGUGCAGAGCCCAACACAGCGUGGCAGAGUGGCUGUGGCUAGACUGCCUCUCUAGAUUCCUCGUCACUCAGCGGGGCAUCUCUGAGAGAAAUGCC as the variant, how does the self-cleavage read?
The self-cleavage was 0.02.

With UACGUAGGUGGUUUUCCCCUGAUAGUGCUAAGGGGGCCUGGAAGUUUGGACUGGACAGAGCUCGACACAGCGUGGCAUAGUGGCCGUGGCUAGACUGCCUCUCUGGAUUCCUCGUCACUCAGCAGGGCAUCUCUGAGAGGAAUGCC as the variant, how does the self-cleavage read?
Its self-cleavage is 0.01.

With UACGUAGGUGGUUUUCCCCUGAUAGUGCUAAGGGGGCCUGGAAGUUUGGACUGGACAGAGCUCAGCACAGCGUGGCAAAGUGGCUGUGGCUAGACUGCCUCACUGGAUUCCUCGUCACUCAGCAGGGCAUCUCUGAGAGAAAUGCC as the variant, how does the self-cleavage read?
The self-cleavage was 0.03.

Which self-cleavage does the source give for UACGUAGGUGGUUUUCCCCUGAUAGUGCUAAGGGGGCCUGGAAGUUUGGACUGGACAGAGCUCAACGCAGUGUGGCGAAGUGGCUGUGGCUAGACUGCCUCGCUGGAUUCCUCGUCACUCAGCAGGGCAUCUCUGAGAGAAAUGCC here?
Its self-cleavage is 0.15.

Which self-cleavage does the source give for UACGUAGGUGGUUUUCCCCUGAUAGUGCUAAGGGGGCCUGGAAGUUUGGACUGGACAGAGCUCAACACAGCGUGGCAAAGUGGCUGUGGCUAGACUGCCUCUCUGGGUUCCUCGUCACUCAGCAGGGCAUCUCUGGGAGAAAUGCC here?
Its self-cleavage is 0.14.

For UACGUAGGUGGUUUUCCCCUGAUAGUGCUAAGGGGGCCUGGAAGUUUGGACUGGACAGAGCGCAACACAGCGUGGCAAAGUGGCUGUGGCUAGACUGCCUCUCUGGAUUCCUCGUCACUCAGCAGGGCAUCUCUGGGAGAAAUGCC, which self-cleavage is on record?
Its self-cleavage is 0.

Which self-cleavage does the source give for UACGUAGGUGGUUUUCCCCUGAUAGUGCUAAGGGGGCCUGGAAGUUUGGACUGGACAGAGCUCAACACAGCGUGGCAAAGUGGCAGUGGCUAGGCUGCCUUUCUGGGUUCCUCGUCACUUAGCAGGGCAUCUCUGAGAGAAAUGCC here?
Its self-cleavage is 0.01.

With UACGUAGGUGGUUUUCCCCUGAUAGUGCUAAGGGGGCCUGGAAGUUUGGACUGGACAGAGCUCAACACAGCGUGGCAAAGUGGCCGUGGCUAGACUGCCUCUCUGGAUUCCUCGUCACUCGGCAGGGCAUCUCUGAGAGAAAUGCC as the variant, how does the self-cleavage read?
Its self-cleavage is 0.04.

Which self-cleavage does the source give for UACGUAGGUGGUUUUCCCCUGAUAGUGCUAAGGGGGCCUGGAAGUUUGGACUGGACAGAGCUCAACACAGCGUGGCAAAGUGGCUGUGGCUAGACUGCCUCUCUGGAUUCCUCGUCACUCAGCAGGGCACCUCUGAGAGGAAUGCC here?
The self-cleavage was 0.43.
